Assay results reported in PubChem BioAssay AID1345083 (National Center for Advancing Translational Sciences (NCATS), 2018).
Among all 94,000 compounds or so, about 6,200 (6.6%) were called active. This list was built around the results that the source calls inconclusive (neither active nor inactive); the mix of calls is not that of the screen. Calls follow the shape of the dose curve; as a rule, active = well fitted inhibition curve with a large enough effect; inconclusive = small, poorly fitted or top-dose-only effect; inactive = flat fitted curve, though single readings scatter. Where the call is inconclusive, the potency comes from a doubtful curve fit.

assay: Cytotoxic Profiling in HEK 293 Cell Line of Diverse Libraries Using Quantitative High-Throughput Screening; settings: HEK 293 viability, ATP luminescence (CellTiter-Glo), 48-72 h; activity change, negative = cytotoxicity: at 115 µM (top of the series) unless noted; series mostly up to 115 µM; also: nearly all actives have a fitted effect of over 60% in size
Procedure, shortened: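 Luminescence from cellular ATP, measured with CellTiter-Glo, indicates HEK 293 viability. Cells plated at 250 cells/well are treated with compound for 48 or 72 hr at 37 degree Celsius before reagent addition.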
% is scaled to controls: 0 for no effect and ±100 for the full control effect; potency is read from the fitted curve at half-maximal effect; tags tell the direction and shape of the fitted curve.

Compound	Potency	activity change, negative = cytotoxicity	outcome
Cc1ccc(N2CC(c3noc(-c4ccc(F)cc4)n3)CC2=O)cc1 (centres undefined)	inconclusive: 79.4 µM [inhibitor, partial curve, poor fit]		
Cc1ccc(-n2nc3n(c2=O)CCN(C(=O)C2CCCC2)C3)cc1	inconclusive: 100 µM [inhibitor, partial curve, poor fit]		
COc1cccc(CN2CCCC(C(=O)NCc3ccncc3)CCNC(=O)CC2)c1 (centres undefined)		inactive: 0.909%	
COc1nc2nc(CCc3ccccc3)n(C)c2cc1-c1ccnn1C	inconclusive: 12.6 µM [inhibitor, full curve, poor fit]		
OC1(c2csc(CN3CCc4ccccc4C3)n2)CCN(CC2CCCCC2)CC1	inconclusive: 63.1 µM [inhibitor, full curve, poor fit]		
Fc1ccc(-c2noc([C@@H]3CCCN3Cc3ccccc3F)n2)nc1	inconclusive: 39.8 µM [inhibitor, full curve]		
Cc1ccc(-c2nc(C(=O)NCc3ccccc3C)no2)cc1	inconclusive: 89.1 µM [inhibitor, single point]		
CCN(CCN(C)C)C(=O)c1ccc2c(c1)C(O)CCCCCN2CCOC (centres undefined)	inconclusive: 100 µM [inhibitor, single point]		
CC1(C)[C@H]2CC[C@@H](CNC(=O)c3ccc(Cl)nc3)[C@@H]1C2	inconclusive: 89.1 µM [inhibitor, partial curve, poor fit]		
COC(=O)[C@H](NC(=O)[C@@H]1[C@@H](NC(=O)Nc2ccc(F)cc2F)CCN1C(=O)c1cnccn1)C(C)C		inactive: 0.303%	
COc1ccccc1Nc1ccnc(N2CCC(NC(C)=O)CC2)n1	inconclusive: 50.1 µM [inhibitor, partial curve, poor fit]		
CN1CC(C(=O)NCc2ccc(C(F)(F)F)cc2)NC1=O (centres undefined)		inactive: 1.52% [at 172 µM]	
COc1ccc(CN2CCc3nc(C(C)C)nc(-c4ccc(Cl)cc4)c3CC2)cc1	inconclusive: 100 µM [inhibitor, single point]		
Cc1oc2c(c1C(=O)NCc1ccc3c(c1)OCO3)CN(Cc1ccc(F)cc1)CC2	inconclusive: 44.7 µM [inhibitor, partial curve, poor fit]		
CC(C)CCNC(=O)c1cnc2n1CCN(Cc1ccc3c(c1)CCO3)CC2	inconclusive: 112 µM [inhibitor, partial curve, poor fit]		
COc1c(C)cc(C)cc1CN1CCC2(CC1)C(C(=O)O)CC(=O)N2C (centres undefined)		inactive: -4.87%	
Cc1cc(C)n(CCC(=O)N[C@@H]2CN(c3ccncn3)C[C@H]2CN(C)C)n1		inactive: -0.738%	
COc1ccc(-c2noc(COC(=O)C3=CN(Cc4ccccc4)S(=O)(=O)N=C3C)n2)cc1	inconclusive: 31.6 µM [inhibitor, partial curve]		
COc1ccccc1-c1[nH]nc2ncc(C(=O)N3CCNC(=O)C3)nc12		inactive: -15.2% [at 172 µM]	
CCc1ccccc1S(=O)(=O)N1CCCN(C)c2ccccc21	inconclusive: 39.8 µM [inhibitor, partial curve, poor fit]		
Cc1cc(CNC(=O)[C@@H]2CCC[C@@H](NC3CCC3)CN(C)C(=O)C2)no1		inactive: -1% [at 172 µM]	
C=CCn1cc2c3c(cccc31)[C@H](CC(C)C)N[C@H](C(=O)NCc1ccc(F)cc1)C2	inconclusive: 70.8 µM [inhibitor, full curve, poor fit]		

Compound	Potency	activity change, negative = cytotoxicity	outcome
Cc1cccc(CN(C(=O)c2ccco2)c2ccc(CC(=O)N3CCCC3)cc2)c1	inconclusive: 50.1 µM [inhibitor, partial curve, poor fit]		
O=C(Cc1ccsc1)N1CCC2(CC1)CC(N1CCCCC1)CCO2 (centres undefined)		inactive: 1.96%	
COc1ccc(CNC[C@H]2Cn3c(-c4ccc(Cl)cc4)cnc3CO2)cc1	active: 56.2 µM		
CCc1ccc(C(=O)N2c3ccccc3CC2c2nc(C3CC3)no2)cc1 (centres undefined)	inconclusive: 56.2 µM [inhibitor, partial curve, poor fit]		
CCOC(=O)C1CCN(C(=O)c2ccc3nnc(-c4cccc(C(F)(F)F)c4)n3c2)CC1	inconclusive: 25.1 µM [inhibitor, full curve, poor fit]		
Cn1cnc(S(=O)(=O)N2CCC(c3noc(-c4cnccn4)n3)C2)c1 (centres undefined)		inactive: 0.615%	
CCCCNc1ncnc2c1CN(C1CCCNCC1)C(=O)CN2C (centres undefined)		inactive: -3.16%	
CSc1ccc(NC(=O)Nc2cccc(-c3ccc(N4CCOCC4)nn3)c2)cc1	inconclusive: 15.8 µM [inhibitor, full curve, poor fit]		
COc1ccc(NC(=O)c2c(C)nc3n2CCC(Nc2ccc(F)cc2)C3)cn1 (centres undefined)		inactive: -25.6% [at 172 µM]	
O=C(CC1=C2CCCCC2NC1=O)NCCc1c[nH]c2ccccc12 (centres undefined)	inconclusive: 89.1 µM [inhibitor, single point]		
O=C1NCc2ccccc2CC12CCCN2C/C=C/c1ccccc1 (centres undefined)	inconclusive: 79.4 µM [inhibitor, partial curve, poor fit]		
CN1CCN(c2ccc(-c3cc4c(ccn4C)c(C(=O)NCCN4CCNC4=O)n3)cc2)CC1	inconclusive: 50.1 µM [inhibitor, partial curve, poor fit]		
C=CCOc1c(OC)ccc2c1CN(CC)C(=O)CCN2C[C@@H](O)COCc1ccccc1	inconclusive: 50.1 µM [inhibitor, partial curve, poor fit]		
COc1cc(Cl)c(C)cc1NC(=O)c1cc2n(n1)CC(c1ccc(Cl)cc1)OC2 (centres undefined)	inconclusive: 50.1 µM [inhibitor, partial curve, poor fit]		
COc1cccc([S+](=O)([O-])NC2CCN(c3ccc4nnc(C)n4n3)CC2)c1	inconclusive: 44.7 µM [inhibitor, partial curve]		
COc1ccc(-c2ccc3nnc(CNC(=O)CCc4ccccc4)n3n2)cc1		inactive: -14.3%	
CCc1c(C)nc(C)nc1N1CCN(C)C2(CCC(=O)N(CC)CC2)C1 (centres undefined)			inactive
CC1=C[C@@H](CNC(=O)CCCC(=O)O)[C@H](C(C)C)C[C@H]1Cc1nc2ccccc2n1C		inactive: -11.7% [at 172 µM]	
COc1cc(NC(=O)Cn2ccn3nc4c(c3c2=O)CCCCC4)cc(OC)c1OC	inconclusive: 56.2 µM [inhibitor, partial curve, poor fit]		
Cc1ccc(NC(=O)N2CC[C@H]3C(=O)NCCCCCN(Cc4cccnc4)[C@@H]3C2)cc1C		inactive: -11.9%	
CC1Oc2ccc(NC(=O)c3ccc([N+](=O)[O-])cc3)cc2CN(Cc2ccccc2F)C1=O (centres undefined)	active: 31.6 µM		
COc1ccc(N2Cc3c(ncnc3N3CCN(Cc4ccccc4)CC3)N(C)CC2=O)cc1		inactive: -4.32%	

Compound	Potency	activity change, negative = cytotoxicity	outcome
Cc1ccc(C)c(CN2C(=O)NC3(CCN(C(=O)Cc4cccc(F)c4)CC3)C2=O)c1	inconclusive: 50.1 µM [inhibitor, partial curve, poor fit]		
O=C([C@@H]1C[C@H](Oc2cccnc2)CN1S(=O)(=O)Cc1ccccc1)N1CCOCC1		inactive: 1.08%	
COc1ccc(Nc2ccnc(N3CCCC(C(=O)NCc4cccc(OC)c4)C3)n2)cc1 (centres undefined)	active: 25.1 µM		
Cc1ccccc1-c1onc(C)c1C(=O)NCc1ccc(F)cc1F	inconclusive: 79.4 µM [inhibitor, partial curve, poor fit]		
O=C(Nc1ccc2c(N3CCCC3)ncnc2c1)c1cc(F)ccc1F	inconclusive: 70.8 µM [inhibitor, partial curve, poor fit]		
O=C1COCC2(CN1)CN(Cc1ccc(Cl)cc1)C2	inconclusive: 141 µM [inhibitor, single point]		
CC(=O)c1cc(CN(CCc2ccccc2)CC2CCCN(C)C2)cs1 (centres undefined)	inconclusive: 22.4 µM [inhibitor, full curve, poor fit]		
COCC(=O)N[C@@H]1CN(Cc2ccc(C)s2)CC[C@@H]1c1n[nH]c(C)n1	inconclusive: 100 µM [inhibitor, single point]		
COC[C@@H]1OCCN(C(=O)NCc2ccc(C)cc2)[C@H]1c1ccccc1		inactive: -5.12%	
CN(C)c1cc(N2CCCC(NC(=O)Cc3ccccc3)C2)ncn1 (centres undefined)		inactive: -6.35%	
Cc1ccc(-c2nnc(C3CN(C(=O)c4sccc4C)CC34CCOCC4)o2)cc1 (centres undefined)	inconclusive: 89.1 µM [inhibitor, single point]		
FC(F)(F)c1ccc(CN2CCCC3(CC(Cc4ccccc4)=NO3)C2)cc1 (centres undefined)	inconclusive: 50.1 µM [inhibitor, partial curve, poor fit]		
CN1CC(=O)N(c2ccc(Cl)cc2)Cc2c1ncnc2N1CCC(c2ccccc2)CC1	inconclusive: 35.5 µM [inhibitor, partial curve, poor fit]		
C=CCCOC(=O)N1CCC(=O)N(CC=C)C[C@H]2COc3cc(OC)ccc3[C@H]21	inconclusive: 22.4 µM [inhibitor, full curve, poor fit]		
COCCn1c(C)nnc1-c1cc(-c2cccc(N(C)C)c2)ccn1	inconclusive: 100 µM [inhibitor, partial curve, poor fit]		
COc1cc(OC)c(CNC(=O)c2c(C)noc2-c2cccs2)c(OC)c1	active: 79.4 µM		
O=C(CC1CCCCC1)N1CCC(Cc2nc(-c3ccccc3)no2)CC1	inconclusive: 31.6 µM [inhibitor, partial curve, poor fit]		
Cc1cc(NC(=O)c2ccc(Cn3ccn4nc5c(c4c3=O)CCCC5)cc2)ccc1F	inconclusive: 39.8 µM [inhibitor, partial curve]		
CC(C)(Oc1nn(CCN2CCOCC2)c2ccccc12)C(=O)NCCc1ccccc1	inconclusive: 100 µM [inhibitor, partial curve, poor fit]		
COCCNC(=O)c1ccc(OC2CCN(Cc3cnc(SC)nc3)CC2)c(Cl)c1	inconclusive: 44.7 µM [inhibitor, partial curve, poor fit]		
